# Experimental data: a collection of fitness landscapes (doi:10.1016/j.celrep.2020.107928)
# The full ranking holds about 81,000 sequences; the median of “one-hybrid fitness for binding NBS DNA” is about -0.1, and the highest 2% start at about 0.36. Some of the results follow.
# B1: Caulobacter ParB omega fusion; a variant is named by its letters at X, in order, B8GW30 (parent)
# chain: MESVVVGEPGMSEGRRGLGRGLSALLGEVDAAPAQAPGEQLGGSREAPIEILQRNPDQPRRTFREEDLEDLSNSIREKGVLQPILVRPSPDTAGEYQIVAGERAWRAAQRAGLKTVPIMVRELDDLAVLEIGIIENVQRADLNVLEEALSYKVLMEKFERTQENIAQTIGKSXSHVANXMRLLXLPDEVQSYLVSGELTAXHARAIAAAADPVALAKQIIEGGLSVRETEALARKAPNLSAGKSKGGRPPRVKDTDTQALESDLSSVLGLDVSIDHRGSTGTLTITYATLEQLDDLCNRLTRGI
# Variants of: B1
# Test: one-hybrid fitness for binding NBS DNA (the Noc-binding site; scaled: cognate 1, non-cognate 0); higher = stronger binding
# Conditions: with NBS DNA site
# How it was run: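 Selection: bacterial one-hybrid in E. coli USO, HIS3 reporter with the site 19 bp from the promoter, 48 hours at 37°C on M9-minus-histidine plus 0.1 mM IPTG and 5 mM 3-AT. Libraries were Caulobacter ParB with four randomised specificity codons, sequenced on Illumina before and after selection. Fitness is the rescaled log change in variant-to-wild-type read ratio, anchored to the cognate and non-cognate sites.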
row,Variant,one-hybrid fitness for binding NBS DNA
1,SCNC,≤ 0.2
2,VCKT,≤ 0.2
3,PQFM,≤ 0.2
4,HGNR,≤ 0.2
5,TPFY,≤ 0.2
6,VMHG,≤ 0.2
7,ATFD,≤ 0.2
8,CHTD,≤ 0.2
9,GPTP,≤ 0.2
10,EAGM,≤ 0.2
11,EMEL,≤ 0.2
12,HNTS,≤ 0.2
13,RWMM,≤ 0.2
14,AACY,≤ 0.2
15,VQSD,≤ 0.2
16,LRDT,≤ 0.2
17,NHKY,≤ 0.2
18,CVYI,≤ 0.2
19,DRTM,≤ 0.2
20,IRMD,≤ 0.2
21,AQGE,≤ 0.2
22,DDMG,≤ 0.2
23,QYSL,≤ 0.2
24,FLIR,≤ 0.2
25,PCLL,≤ 0.2
26,PAHW,≤ 0.2

row,Variant,one-hybrid fitness for binding NBS DNA
1,SFGL,≤ 0.2
2,DFYI,≤ 0.2
3,HQMC,≤ 0.2
4,LGPW,≤ 0.2
5,QEDI,≤ 0.2
6,NVYR,≤ 0.2
7,AAFT,≤ 0.2
8,RTDI,≤ 0.2
9,RNHG,≤ 0.2
10,PSAK,≤ 0.2
11,FGKK,≤ 0.2
12,NFML,≤ 0.2
13,PLYA,≤ 0.2
14,LTFT,≤ 0.2
15,NENS,≤ 0.2
16,QRPQ,≤ 0.2
17,AFNF,≤ 0.2
18,LRAV,≤ 0.2
19,SRQY,≤ 0.2
20,VGTI,≤ 0.2
21,DITA,≤ 0.2
22,PSAM,≤ 0.2
23,FRDC,≤ 0.2
24,TDNQ,≤ 0.2
25,RCPF,≤ 0.2
26,TTGR,≤ 0.2

row,Variant,one-hybrid fitness for binding NBS DNA
1,RAAL,≤ 0.2
2,QLHP,≤ 0.2
3,TGFD,≤ 0.2
4,TNTY,≤ 0.2
5,LMRS,≤ 0.2
6,PTWH,≤ 0.2
7,RRFN,0.23
8,IPGR,≤ 0.2
9,NHPS,≤ 0.2
10,AVRA,≤ 0.2
11,SQLT,≤ 0.2
12,PFPM,≤ 0.2
13,SCHP,≤ 0.2
14,HRLH,≤ 0.2
15,LPEP,≤ 0.2
16,TDAR,≤ 0.2
17,QEVG,≤ 0.2
18,CSHE,≤ 0.2
19,SFAR,≤ 0.2
20,EHQL,≤ 0.2
21,RWDR,≤ 0.2
22,SDMY,≤ 0.2
23,TFSF,≤ 0.2
24,KSSM,≤ 0.2
25,SNLT,≤ 0.2
26,NTFH,≤ 0.2

row,Variant,one-hybrid fitness for binding NBS DNA
1,ETDG,≤ 0.2
2,HVQS,≤ 0.2
3,LGPC,≤ 0.2
4,MSLM,≤ 0.2
5,QPTD,≤ 0.2
6,IAMH,≤ 0.2
7,QSWI,≤ 0.2
8,YFDS,≤ 0.2
9,KNWD,≤ 0.2
10,SLDK,≤ 0.2
11,ECLV,≤ 0.2
12,KTCS,≤ 0.2
13,QYRL,0.216
14,QIAW,≤ 0.2
15,YRPA,≤ 0.2
16,HHWN,≤ 0.2
17,RMMF,≤ 0.2
18,RRFA,0.569
19,PFEA,≤ 0.2
20,LYSY,≤ 0.2
21,ACTT,≤ 0.2
22,LYQR,≤ 0.2
23,PHNF,≤ 0.2
24,AEGT,≤ 0.2
25,CCRD,≤ 0.2
26,WSKE,≤ 0.2

row,Variant,one-hybrid fitness for binding NBS DNA
1,KWCC,≤ 0.2
2,EAAN,≤ 0.2
3,QCSI,≤ 0.2
4,WAWS,≤ 0.2
5,APRS,≤ 0.2
6,LYAC,≤ 0.2
7,MVSY,≤ 0.2
8,KSNL,≤ 0.2
9,SHYD,≤ 0.2
10,YPNF,≤ 0.2
11,KKRY,≤ 0.2
12,QFHA,≤ 0.2
13,RLQH,≤ 0.2
14,VQWW,≤ 0.2
15,KTIF,≤ 0.2
16,RGCN,≤ 0.2
17,RMFP,≤ 0.2
18,PARL,≤ 0.2
19,HEWS,≤ 0.2
20,SKTN,≤ 0.2
21,TESI,≤ 0.2
22,VSHD,≤ 0.2
23,VADY,≤ 0.2
24,HAPG,≤ 0.2
25,QRHN,0.437
26,WGYT,≤ 0.2

row,Variant,one-hybrid fitness for binding NBS DNA
1,ERYS,≤ 0.2
2,FLLR,≤ 0.2
3,VGGC,≤ 0.2
4,PYGC,≤ 0.2
5,HGGS,≤ 0.2
6,HKMN,≤ 0.2
7,CFGG,≤ 0.2
8,FKEG,≤ 0.2
9,ANHR,≤ 0.2
10,SDAS,≤ 0.2
11,RDNY,≤ 0.2
12,VMYN,≤ 0.2
13,DFAH,≤ 0.2
14,NQFG,≤ 0.2
15,QRKK,0.777
16,EPTF,≤ 0.2
17,ERQT,≤ 0.2
18,ATNF,≤ 0.2
19,RTNE,≤ 0.2
20,NGPF,≤ 0.2
21,WPFW,≤ 0.2
22,RHSN,≤ 0.2
23,SSRF,≤ 0.2
